Experiments:
[1] = system: herpesvirus; assay type: cell-based
[2] = system: CMV; assay type: cell-based

Nc1nc2c(ncn2COCCO)c(=O)[nH]1 [Acyclovir, acyclovir]
antiherpesviral activity of serum [1]: antiherpesviral activity was displayed

C=CC[C@@H]1/C=C(\C)C[C@H](C)C[C@H](OC)[C@H]2O[C@@](O)(C(=O)C(=O)N3CCCC[C@H]3C(=O)O[C@H](/C(C)=C/[C@@H]3CC[C@@H](O)[C@H](OC)C3)[C@H](C)[C@@H](O)CC1=O)[C@H](C)C[C@@H]2OC [FK 506]
influence on CMV proliferation [2]: hardly affects CMV proliferation

NC(=O)c1ncn([C@@H]2O[C@H](CO)[C@@H](O)[C@H]2O)c1O [mizoribine]
influence on CMV proliferation [2]: inhibited CMV proliferation
